Experimental findings from the supplement of paper PMC10126150 are described below.

Values marked as one replicate rest on one cluster of the flow cell; about a third of the high ones do not repeat.

This series deals with ATP. Put plainly: switch fluorescence ratio, 500 uM ATP over buffer (Cy3 cluster intensity, sum of 5 cycles each) (fold (ratio)); higher = stronger signal-on switching upon ATP binding; sequences stand for … in TCGTCGGCAGCGTCAGATGTGTATAAGAGACAGTTTTTTTTTTTTTTTTTTTTTTTTT…TC. Particulars: aptamer strand: ATP DNA aptamer (quencher-CACCTGGGGGAGTATTGCGGAGGAAGG + anchor), 100 nM annealed; ATP concentration: 500 uM; one replicate. The procedure, abridged: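 Five buffer/ATP imaging cycles were run on Cy3-labelled switching-strand clusters on a modified Illumina MiSeq flow-cell, with NaOH stripping and re-annealing between cycles. In each cycle, clusters annealed to 100 nM quencher-labelled ATP aptamer were imaged in selection buffer, then after 15 min with 500 uM ATP at 22 °C. Per cluster, the fluorescence ratio is summed target-cycle over summed buffer-cycle Cy3 intensity, averaged per switch-domain sequence. Only clusters within 100-1000 RFU were kept.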
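Further: ATP exposure 15 min at 22 °C before imaging.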

On to CGCCTGGAGC, for which the switch fluorescence ratio is 1.14.

Consider GTCCAAGTAA, for which the switch fluorescence ratio came to 1.05.

In the case of TTAGGAGTTA, the switch fluorescence ratio came to 0.953.

On to CGCTACGTCC, for which the switch fluorescence ratio stood at 1.19.

Consider AATGTGTTTA, for which the switch fluorescence ratio was found to be 1.01.

With AAGACTCCCA, the switch fluorescence ratio is 1.06.

As to CATTAATTAT, the switch fluorescence ratio came to 0.99.

On to TATTCGTGTC, for which the switch fluorescence ratio came to 1.01.

As to TGGGAAAACA, the switch fluorescence ratio is 1.01.

As for GATCCCCCCA, the switch fluorescence ratio came to 1.06.

As to ACCGGTTGAA, the switch fluorescence ratio amounted to 0.97.

As for TCAACCGTA, the switch fluorescence ratio is 1.03.

On to GAACACGCCA, for which the switch fluorescence ratio was 1.33.

As to ATAACAGCGG, the switch fluorescence ratio stood at 0.954.

For the sequence TTGGTATCAG, the switch fluorescence ratio was 1.01.

On to AAGGTGCAAA, for which the switch fluorescence ratio is 1.03.

TATGAGGCTA: the switch fluorescence ratio was 1.

CTGTTAGTAG: the switch fluorescence ratio is 0.995.

Regarding TCTAGCTCAT, the switch fluorescence ratio came to 1.01.

With AAAGGGTCGT, the switch fluorescence ratio came to 0.946.

For the sequence CGCTCGGACC, the switch fluorescence ratio was 1.1.

For GGTATCAATC, the switch fluorescence ratio was 0.966.

With TCGCTCCTCA, the switch fluorescence ratio came out at 1.1.

TACATAGTCG: the switch fluorescence ratio worked out at 1.03.

With CTCGCCGCCA, the switch fluorescence ratio worked out at 1.03.

As to TAGTGTTTTC, the switch fluorescence ratio is 0.969.

As to CAGCGGCGAC, the switch fluorescence ratio amounted to 1.2.

Consider GTAATCCCTG, for which the switch fluorescence ratio was 1.02.

GAAGACAACG: the switch fluorescence ratio is 1.09.

As to GTCATATAAC, the switch fluorescence ratio is 1.06.

Turning to TTCCCATATT, the switch fluorescence ratio amounted to 1.01.

As for TACATGGTAC, the switch fluorescence ratio is 1.

For the sequence TTGCGAGTAT, the switch fluorescence ratio was 0.966.

With TTTTGTTCG, the switch fluorescence ratio stood at 0.991.

Turning to ATCAAGTCCG, the switch fluorescence ratio turned out to be 1.04.

With AGTGGCGGTT, the switch fluorescence ratio is 0.962.

Consider GGGTCCACCG, for which the switch fluorescence ratio stood at 1.

With GAGATCTGGG, the switch fluorescence ratio was found to be 0.949.

Consider ATCGATGGTA, for which the switch fluorescence ratio is 0.943.

Regarding GTCGTCCCCG, the switch fluorescence ratio was determined as 0.974.

Take ATCCGAGCTG: the switch fluorescence ratio worked out at 1.23.

Turning to AATTAAGACA, the switch fluorescence ratio came out at 0.951.

As to TCCATTGGCT, the switch fluorescence ratio amounted to 0.991.

With TTGTCAGAAT, the switch fluorescence ratio turned out to be 0.987.

On to CAAGATGGCG, for which the switch fluorescence ratio came out at 1.09.

For the sequence CAGCCCGCGT, the switch fluorescence ratio stood at 1.07.

As to CACACTCTTC, the switch fluorescence ratio is 0.966.

GGTGAGTATC: the switch fluorescence ratio was 0.986.

Regarding GAACCTGGTC, the switch fluorescence ratio is 1.21.

Regarding ATAGGTTTT, the switch fluorescence ratio came out at 1.13.

With CGTCAAATTT, the switch fluorescence ratio was 0.951.

Take GGCTCTGTCT: the switch fluorescence ratio came to 0.983.

Consider GTCCTGGGCG, for which the switch fluorescence ratio is 1.

With CAACTTCGGC, the switch fluorescence ratio came out at 1.

For the sequence AGAGTCAGCC, the switch fluorescence ratio worked out at 1.05.

Regarding CGATGAGGAC, the switch fluorescence ratio is 0.937.

With ATAGAAATAT, the switch fluorescence ratio turned out to be 1.04.

For the sequence ATAAGGACCT, the switch fluorescence ratio was determined as 1.15.

Turning to CAATCCCCGC, the switch fluorescence ratio worked out at 1.2.

As for GAAACAAA, the switch fluorescence ratio stood at 0.994.

On to AGGTATACGT, for which the switch fluorescence ratio turned out to be 1.03.

As for GAACCCGACC, the switch fluorescence ratio stood at 1.58.

As for AATAGACGAG, the switch fluorescence ratio was found to be 0.985.

Turning to TTCAAAAGGA, the switch fluorescence ratio stood at 0.941.

For the sequence CTGCATTGAA, the switch fluorescence ratio came out at 1.01.

Take TTGAGGTCCG: the switch fluorescence ratio was found to be 0.967.

For ATGAGCACAC, the switch fluorescence ratio is 1.17.

GGGGGGTAT: the switch fluorescence ratio amounted to 1.02.

On to GAGATATAAA, for which the switch fluorescence ratio came to 0.981.

AATGCTAGTT: the switch fluorescence ratio was 1.06.

On to TCATGTAATG, for which the switch fluorescence ratio is 1.01.

Turning to CGCTGGGCCC, the switch fluorescence ratio was found to be 1.14.

Take TATCGTAA: the switch fluorescence ratio was found to be 1.

As for AGTCTCATTT, the switch fluorescence ratio was 1.05.

Consider CATTTCTACG, for which the switch fluorescence ratio was determined as 1.1.

As to ATTAACTCA, the switch fluorescence ratio came to 1.03.

For the sequence ATTTATGGGA, the switch fluorescence ratio was 0.96.

As for AGCTACGACA, the switch fluorescence ratio came out at 1.33.

Consider TATTACGCTA, for which the switch fluorescence ratio came to 1.32.

On to CTGTTAATGG, for which the switch fluorescence ratio worked out at 1.02.

For the sequence CACGTGACTA, the switch fluorescence ratio came out at 1.14.

On to ACAATGGATC, for which the switch fluorescence ratio is 1.02.

As for TTTTAGTTCA, the switch fluorescence ratio was determined as 1.02.

In the case of GTTTGTCGAC, the switch fluorescence ratio stood at 0.979.

Regarding CGGGCAGGGA, the switch fluorescence ratio worked out at 1.07.

For ACTGTCTCAT, the switch fluorescence ratio came to 0.974.

For GAACTTCAGG, the switch fluorescence ratio was determined as 1.02.

GGGAAGGGA: the switch fluorescence ratio was 1.01.

As for AGGAGGATTT, the switch fluorescence ratio turned out to be 0.979.

With TGGGGGTCCG, the switch fluorescence ratio came out at 0.996.

Consider TCACGTAGCA, for which the switch fluorescence ratio was found to be 1.38.

AGAATAGAA: the switch fluorescence ratio came to 1.

In the case of ACGGTTCTAT, the switch fluorescence ratio turned out to be 1.12.

For the sequence GCATGGTTTA, the switch fluorescence ratio amounted to 1.02.

For the sequence GATCGCACCT, the switch fluorescence ratio stood at 1.4.

Regarding TTTTTGTGT, the switch fluorescence ratio came out at 0.954.

GGCAACTGAG: the switch fluorescence ratio was determined as 1.05.

With AATATAGCCT, the switch fluorescence ratio turned out to be 1.15.

For the sequence CTTTAGATTG, the switch fluorescence ratio was 1.01.

Turning to CGCTACTGTG, the switch fluorescence ratio is 1.04.

Take CTAATTAACC: the switch fluorescence ratio worked out at 1.04.

Consider ATTCTATCTC, for which the switch fluorescence ratio came out at 0.983.

As for TATACAATTA, the switch fluorescence ratio was found to be 1.01.

With CTCACCACCG, the switch fluorescence ratio came out at 1.17.

Regarding AAGAGGGATA, the switch fluorescence ratio came to 1.06.

Regarding GGCGTTTCTG, the switch fluorescence ratio turned out to be 0.982.

Consider GACGTCGTCT, for which the switch fluorescence ratio was found to be 0.936.

CAAACGACTA: the switch fluorescence ratio was 1.06.

For the sequence AGACCTTTTG, the switch fluorescence ratio came out at 0.958.

Consider TCTAGCCTGC, for which the switch fluorescence ratio was determined as 0.967.

As to CTAGACTCAG, the switch fluorescence ratio came to 1.02.

As for ATCATGCATA, the switch fluorescence ratio is 1.04.

On to ATGAGTGATT, for which the switch fluorescence ratio worked out at 1.01.

AGTCTCCTCT: the switch fluorescence ratio is 0.969.

Turning to GGGGTCAG, the switch fluorescence ratio came to 0.989.

With CGTAGATCGC, the switch fluorescence ratio was determined as 1.07.

As to TTGCTACGTG, the switch fluorescence ratio came out at 1.

Consider TGCCAATCCA, for which the switch fluorescence ratio was 1.01.

As for GTGTTCTTGT, the switch fluorescence ratio stood at 0.976.

On to GTTTCGTTGG, for which the switch fluorescence ratio worked out at 0.98.
